Reference: the supplement of paper PMC3334620
The full ranking holds about 33,000 sequences; the median of “E-score (-0.5 to 0.5)” is about -0.041, and the highest 2% start at about 0.37. The list shows a part of the results.

Molecular target: T1, Ecm22 (UniProt Q05958)
T1 sequence: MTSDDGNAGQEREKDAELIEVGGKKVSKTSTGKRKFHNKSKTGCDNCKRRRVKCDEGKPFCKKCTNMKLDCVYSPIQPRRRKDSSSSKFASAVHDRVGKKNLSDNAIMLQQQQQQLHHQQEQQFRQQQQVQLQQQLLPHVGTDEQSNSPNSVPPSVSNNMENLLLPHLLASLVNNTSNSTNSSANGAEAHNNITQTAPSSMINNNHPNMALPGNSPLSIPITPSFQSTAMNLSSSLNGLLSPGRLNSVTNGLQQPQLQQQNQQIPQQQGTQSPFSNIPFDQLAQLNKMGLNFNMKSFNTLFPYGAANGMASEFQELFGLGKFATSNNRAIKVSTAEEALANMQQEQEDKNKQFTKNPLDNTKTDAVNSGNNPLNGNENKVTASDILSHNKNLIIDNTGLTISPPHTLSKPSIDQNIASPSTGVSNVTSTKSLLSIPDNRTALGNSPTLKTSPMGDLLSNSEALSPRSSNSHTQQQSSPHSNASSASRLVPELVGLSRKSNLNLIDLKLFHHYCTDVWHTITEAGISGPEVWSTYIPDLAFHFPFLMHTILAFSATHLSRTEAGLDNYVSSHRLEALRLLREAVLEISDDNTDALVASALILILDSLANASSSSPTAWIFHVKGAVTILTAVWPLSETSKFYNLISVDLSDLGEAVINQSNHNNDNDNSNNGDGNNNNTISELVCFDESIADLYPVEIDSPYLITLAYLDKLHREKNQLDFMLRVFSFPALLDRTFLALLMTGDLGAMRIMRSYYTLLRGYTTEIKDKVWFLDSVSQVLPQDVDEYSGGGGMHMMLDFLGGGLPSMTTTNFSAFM
Experiment: PBM E-score (8-mer binding enrichment) (E-score (-0.5 to 0.5)); higher = stronger / more preferred TF binding; most listed sequences are background and not binding sites
Settings: protein concentration: 200 nM; construct: GST-full length
Procedure, shortened: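 Universal all-10-mer Agilent arrays, double-stranded by primer extension on fresh or once-stripped slides, were probed with about 100-200 nM GST-tagged yeast transcription factors made by PURExpress. Fluorescent anti-GST detected bound protein, and masliner normalised the scans. E-scores from the Universal PBM Analysis Suite were given to each ungapped eight-base word pooled with its reverse complement.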

Sequence | PBM E-score
ACCACGCT | 0.0578
ATAGGTTG | -0.267
GAGAGTAA | -0.0985
CCCCCATA | -0.235
GCCCGTTA | -0.022
GCAATACA | 0.0705
ATATGCTG | -0.24
CAAGATGC | -0.138
CATCAGGC | -0.231
GCTTCGTA | 0.441
ACATCGCA | 0.0391
CAAGTATC | -0.0723
ATAAAATC | 0.0778
ACGAGGTG | 0.397
AGTCACTA | 0.0548
AATTAACT | 0.0866
AAGCGTAT | 0.235
AAGCGCTA | -0.0259
CGCGGGCA | 0.0325
CCTCGCCG | -0.151
CAGCCTAC | -0.0944
CTCTACGC | 0.00503
ACGGGCGC | 0.112
CTTACGAC | 0.394
CGCATTAG | -0.122

Sequence | PBM E-score
AAAGTCAG | -0.0469
CGTGCGAG | 0.246
AAAACAAG | -0.0792
AGCACGTA | 0.109
GCCCCTAA | -0.276
CAGTGTGG | -0.311
CAAACTGC | -0.0122
GATACGCC | 0.162
ACGCGTAC | 0.265
CAGCGCAA | -0.0484
AAGACATG | -0.112
GGCCCAAA | 0.0966
ACTGGACC | -0.0165
GAATGTGC | -0.0225
ATCATGAA | -0.0308
CGTAAGCA | 0.118
CAGTCCAG | -0.328
AGATAAAC | 0.156
CGGGCCAG | -0.0266
CTTGGGGC | -0.13
CCATGTGC | -0.0904
AATGCAGT | -0.0129
ACTGGATG | -0.18
AGCCAGGG | -0.109
AGCCTCTC | -0.117

Sequence | PBM E-score
CCACACCG | -0.0803
CAGCAGCG | 0.00537
CCTGCGAC | -0.111
ATGAGGGA | -0.0667
AGATGTTG | -0.164
AGTTTAAA | 0.0639
GCAGAAGC | 0.0949
GACGCTCA | -0.0816
AGGTCGGG | -0.108
AGCTAGCA | -0.127
ACAGTTAT | -0.183
GACCCCAA | -0.193
CGCCCTAA | -0.27
ATAATCTA | 0.0551
GGCGTCCC | -0.0688
ATAAGACC | -0.164
CAGCCAGC | -0.276
CGCCGGAA | -0.0229
AACCTTGA | -0.248
ACCGGCCT | -0.221
CTGTCCCC | -0.109
GACACCAA | 0.0388
CAAGGGAA | -0.196
GACTGTCA | -0.0879
CTTTAATC | 0.0468

Sequence | PBM E-score
CAGAAGTC | -0.251
TATAGCAA | -0.0178
CACGAAAG | -0.0739
AGTGAACC | 0.131
ACCGCGCC | -0.0104
GTCTTAAA | -0.0381
CATACGTC | 0.0749
TGGCGGAA | -0.226
TCCCCCAA | -0.309
GGATTTAA | 0.0122
ACCGGAAA | 0.0999
CTGTGATC | -0.0572
AAATCTAT | 0.094
GCCCATAC | -0.0281
GATTATAC | 0.165
ATCCCCGC | -0.00157
AAGCCAGG | -0.232
TGCTGCAA | 0.119
CCGACCAG | -0.0384
CTACTCGC | 0.142
ATAGGTGA | 0.0133
CAGAGCAA | 0.166
CCGGAACC | -0.0325
CATGACTC | -0.213
CTGGTGCA | -0.199

Sequence | PBM E-score
AGCTGCCG | -0.134
ACCCCAGA | -0.302
ACCCGCCA | 0.102
AGACCCAG | -0.272
GTCTACAA | 0.0235
CTCGGACC | 0.299
GAATAATC | 0.201
CAGATTAA | -0.035
AACCGTAA | 0.235
GTCTGAAA | -0.124
CTAAGCGC | 0.0189
CAGCCTGC | -0.217
AAGGACGG | -0.123
ACAAGCAA | 0.0804
CGATGTAC | 0.206
CCGTTCCG | 0.441
ATGCACAC | 0.00417
AATTCGTG | -0.036
CATGATAG | -0.14
CCTTGCTC | -0.127
CAAAGCGA | 0.129
CGAACTTC | 0.183
AATACGGA | 0.249
GGCGCCTA | -0.143
CTTTGTTC | 0.115

Sequence | PBM E-score
TAGAGCTA | -0.269
AACGAGAG | 0.433
AAGGGTGT | -0.307
AGATTAAT | 0.105
CCCACGGA | -0.0435
ATGGTACG | 0.443
GGTCTCAC | -0.223
ACTCGACA | 0.035
CTTTATAA | -0.128
ACTGGTAT | 0.0582
ACCGGGTC | 0.0691
ACAATTGC | -0.123
CGGCGTAG | -0.00106
ACATTTAC | -0.0083
CTACGATC | 0.325
CCTAGTGA | -0.208
ATTCAGAC | -0.00563
GGGCATAC | 0.00962
CGTTTTTA | 0.235
CTAAAGGC | -0.0656
CTCTGTCA | -0.138
GGTCTGCA | -0.171
ACGCTCAT | -0.0709
CGCTACGC | 0.138
AAAGGGAC | -0.13

Sequence | PBM E-score
ATTTCGGG | -0.12
AAACTAGG | -0.12
CTCAAAAA | -0.163
TAAGAAAA | 0.0248
CGTTCCAA | 0.365
GGTCCCCA | -0.236
GTTGAACA | -0.117
AGCCCTCA | -0.122
CCACAAAC | -0.0295
GCCCGTAC | 0.396
GTTTCATA | 0.116
AACTTCGG | 0.0486
CGCAACGA | 0.448
ATTTCAGA | -0.142
TTCGGCAA | 0.169
CAGATGCG | -0.0929
CCTAGAGA | -0.098
CCTACGAG | 0.339
CTAGTGTA | -0.0315
AAAAACCC | -0.182
TCGGCGCA | -0.113
GCAGCTGC | -0.117
